Test results taken from PubChem BioAssay AID485344 (National Center for Advancing Translational Sciences (NCATS), 2010).
Hit rate of the full screen: of about 340,000 compounds, about 6,900 (2%) were called active. Rule as the data show it: active = inhibition above about 30%; inactive = below that, where a call was filed. Only a part is listed here, and it is no random draw. The source gives no active or inactive call for entries shown without one.

target: D(2) dopamine receptor (Homo sapiens) (UniProt P14416); assay: HTS Assay for Allosteric Antagonists of the Human D2 Dopamine Receptor: Primary Screen for Antagonists; settings: HEK293 TREx D2 cells, calcium flux, dopamine EC80; at 10 µM; stronger effect = higher value; also: 0% is about no effect
Chain of UniProt P14416 (P14416 whole entry, looked up): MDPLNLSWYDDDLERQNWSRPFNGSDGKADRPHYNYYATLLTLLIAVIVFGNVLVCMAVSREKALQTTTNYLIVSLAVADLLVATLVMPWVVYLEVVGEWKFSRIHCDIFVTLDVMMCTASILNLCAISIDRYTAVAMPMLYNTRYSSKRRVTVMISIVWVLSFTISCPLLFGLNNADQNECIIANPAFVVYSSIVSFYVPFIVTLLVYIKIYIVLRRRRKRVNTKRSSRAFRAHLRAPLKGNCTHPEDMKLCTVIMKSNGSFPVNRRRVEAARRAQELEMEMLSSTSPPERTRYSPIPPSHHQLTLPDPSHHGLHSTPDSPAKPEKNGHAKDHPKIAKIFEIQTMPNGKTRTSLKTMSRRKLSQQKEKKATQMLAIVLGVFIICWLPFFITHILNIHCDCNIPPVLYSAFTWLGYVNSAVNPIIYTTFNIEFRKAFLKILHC
In short: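 Overnight-induced (tetracycline, 30 C) HEK293 T-REx cells carrying force-coupled D2 receive a no-wash calcium dye, then compound, then EC80 dopamine at 180 s; signals are read kinetically throughout.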

SMILES | inhibition
Cc1nc2ccc(S(=O)(=O)NCC(=O)NCc3ccc(Cl)cc3)cc2s1 | 7.24%
COc1ccccc1N1CCN(c2ncc3c(n2)CCN(Cc2ccccc2C)C3)CC1 | 11.5%
Cc1ccc(OCC(=O)OCc2cc(=O)n3ccsc3n2)cc1C | 4.5%
CCOc1ccc(NC(=O)Cn2c(=O)nc(-c3ccccc3)c3ccccc32)cc1 | -28.1%
Cc1ccc(C)c(NC(=O)CSc2cn(CC(=O)N3CCCCC3)c3ccccc23)c1 | 0.189%
COc1ccc(OC(=O)c2cc(-c3ccc4c(c3)OCCO4)on2)cc1 | -19.7%
Cc1ccc2c(CNCCc3ccco3)c(C(=O)O)n(Cc3ccc(F)cc3)c2c1 | 6.58%
CCOc1ccc(CN(CCc2ccc3c(c2)OCO3)Cc2cc(OC)cc(OC)c2)cc1 | 19.1%
COc1ccc(NC(=O)CCCc2nnc3n(C(C)C)c(=O)c4sccc4n23)cc1Cl | 1.14%
Cc1cc(=O)[nH]c2nnc(SCc3cccc(C(F)(F)F)c3)n12 | 15.7%
O=C(CSc1nccn1Cc1ccco1)Nc1ccc(OC(F)(F)F)cc1 | -2.21%
CCN1CCC(N(Cc2ccc(F)cc2)C(=O)Nc2ccc(C)c(F)c2)CC1 | -11.3%
CCOc1ccc(NC(=O)Cn2cc(C(=O)C3CC3)c3ccccc32)cc1 | -14.6%
CC1=C(C(=O)NCc2cccc(Cl)c2)C2(CCCCCC2)OC1=O | 26.3%
CCOC(=O)c1c(C)oc2nc(C)nc(NCCc3ccc(OCC)cc3)c12 | 0.875%
O=c1c2ccccc2[nH]c(=S)n1CCN1CCN(Cc2ccccc2)CC1 | active: 51.7%
CCC(C)NC(=O)Cn1c(=O)n(-c2cc(OC)cc(OC)c2)c(=O)c2ccccc21 (stereo unspecified) | 4.23%
CC(=O)Nc1ccc(S(=O)(=O)N2CCC(n3c(C)nc4cccnc43)CC2)cc1 | 7.55%
O=C(Cn1cccc1C(=O)c1ccccc1)NCCN1CCOCC1 | active: 54.9%
CCOC(=O)c1ccc(NC(=O)CCc2c(C)nc3cc(-c4ccc(OC)cc4OC)nn3c2C)cc1 | 7.46%
COc1cccc(N2CCN(Cc3ccsc3)CC2)c1 | active: 48%
CC(C)Oc1ccc(C(=O)N2CCC(c3nc4ccccc4s3)CC2)cc1 | 0.559%
Cc1ccc(SCCNC(=O)CN(c2cccc(C)c2C)S(C)(=O)=O)cc1 | 20.5%
COc1cc(C(=O)Nc2ccc(-c3nc4cc(C)c(C)cc4o3)cc2)cc(OC)c1OC | 5.24%

SMILES | inhibition
COc1ccc(NC(=O)CSc2nncn3c2cc2occc23)c(OC)c1 | -1.03%
COc1ccc(C(=O)NCC(=O)OCc2cc(=O)n3nc(C4CCCCC4)sc3n2)cc1 | 1.7%
Cc1ccccc1-c1nc(CS(=O)(=O)CC(=O)NCCCN2CCN(C)CC2)c(C)o1 | 10.2%
Cc1c2cnn(-c3ccccc3)c(=O)c2c(C)n1CC(=O)Nc1ccccc1Br | -6.69%
O=C(Nc1nnc(S(=O)(=O)N2CCCc3ccccc32)s1)c1ccc(Cl)cc1 | 19%
CCN(C(=O)CSc1nc(-c2ccc(C(C)C)cc2)no1)c1ccccc1 | 5.26%
COc1ccc2c(c1)CC(C(=O)Nc1ccc(Br)c(C)c1)CO2 (stereo unspecified) | -6.03%
Cc1ccc(N2CCN(C(=O)c3cn(C)c4ccc(S(=O)(=O)N5CCC(C)CC5)cc4c3=O)CC2C)cc1 (stereo unspecified) | -9.69%
O=C(Cn1c(=O)n(Cc2ccco2)c(=O)c2ccccc21)Nc1cccc(F)c1 | 4.82%
CC(=O)c1ccc(NC(=O)c2cnc(N3CCCC3)nc2C)cc1 | -7.56%
COc1ccc(NC(=O)Cn2c(=O)n(Cc3ccco3)c(=O)c3sc4ccccc4c32)cc1OC | 5.61%
Cc1ccc(-n2c(-c3ccc(Br)cc3)nc3c(cnn3-c3ccccc3)c2=O)cc1 | 5.87%
CCc1ccccc1NC(=O)Cn1c(=O)n(-c2ccccc2)c(=O)c2oc3ccccc3c21 | -14.5%
Cc1cccc(C(=O)Nc2nc(-c3nnn(-c4cc(C)ccc4C)c3C)ns2)c1 | -1.96%
COc1ccccc1-c1cc(C(F)(F)F)nc(S(=O)(=O)CCCC(=O)Nc2ccc(F)cc2F)n1 | -3.31%
COC(=O)C1CCN(Cc2nnc(-c3ccccc3)o2)CC1 | active: 65.6%
COc1ccc(-c2ccc(CCC(=O)O)n2-c2cc(Cl)ccc2O)cc1 | 9.67%
O=C(Cn1c(=O)n(Cc2nc(-c3ccccc3)no2)c(=O)c2cc3c(cc21)OCO3)Nc1cccc(C(F)(F)F)c1 | 3.87%
Nc1nnc(CC(=O)N/N=C/c2cccc(OCCOc3ccccc3)c2)s1 | active: 30.5%
COc1cccc(C2CC(=O)Nc3c2c(=O)n(C)c2nc4ccccc4n32)c1 (stereo unspecified) | -4.45%
CCOC(=O)C1CCN(C(=O)Cn2ncc3c([nH]c4ccccc43)c2=O)CC1 | 0.55%
CCOC(=O)c1c(C)[nH]c(C)c1S(=O)(=O)N(C)CC(=O)Nc1cccc(C(F)(F)F)c1 | 0.341%
O=C(c1ccc(N2C(=O)C3CC=C(Cl)CC3C2=O)cc1)N1CCCCC1 (stereo unspecified) | active: 37.7%
Cc1cccc(CNC(=O)Cn2ccc3cc(S(=O)(=O)N4CCC(C)CC4)ccc32)c1 | 1.42%

SMILES | inhibition
Cc1cc(C)cc(NC(=O)Cn2c(=O)n(Cc3ccc4c(c3)OCO4)c(=O)c3oc4ccccc4c32)c1 | -5.58%
NS(=O)(=O)c1ccc(NC(=S)Nc2ccn(Cc3cccc4ccccc34)n2)cc1 | active: 42.3%
Cc1cccc(NC(=O)c2oc3ccc(S(=O)(=O)N4CCC5(CC4)OCCO5)cc3c2C)c1C | 10.8%
Cc1ccc(Cl)cc1NC(=O)COC(=O)c1ccc(N2CCCC2)c([N+](=O)[O-])c1 | active: 57.2%
COc1ccc(-n2nc(C(=O)Nc3cccc(C)n3)c3c4ccccc4n(C)c3c2=O)cc1 | -2.14%
Cc1ccc2c(c1)-c1ncc(C(=O)c3cc(Br)ccc3O)cc1CO2 | 15.8%
CC(=O)c1ccc(N2CCN(c3ncnc4c3cnn4C)CC2)cc1 | -15.2%
CC1CCN(S(=O)(=O)c2ccc3c(c2)N(CC(=O)NCCCN2CCCC(C)C2)C(=O)CS3)CC1 (stereo unspecified) | 5.96%
Cc1cccc(CNC(=O)c2ccc(NC(=O)N3CCSc4ncccc43)cc2)c1 | -7.97%
CCOc1ccc(NC(=O)C(C)Sc2nc3ncccc3o2)cc1 (stereo unspecified) | 3.61%
CCOC(=O)c1cc(S(=O)(=O)Nc2ccccc2OCC)[nH]n1 | -6.81%
Cc1ccccc1CSc1nc2c([nH]c3ccccc32)c(=O)n1C | 5.42%
COc1ccc(-n2c(=O)c3c4c(sc3n3c(SC(C)C)nnc23)COC(C(C)C)C4)cc1 (stereo unspecified) | 13.5%
CCCc1cc(=O)[nH]c(SCc2nc(-c3ccccc3F)no2)n1 | -21.3%
CC(Oc1cc2oc(=O)cc(-c3ccccc3)c2cc1Cl)C(=O)NCC1CCC(C(=O)O)CC1 (stereo unspecified) | active: 43.2%
Cc1ccc(-n2ncc(C(=O)NCCN3CCc4ccccc4C3)c2C2CCNCC2)cc1C | 5.37%
COc1ccc(NC(=O)c2cc(=O)c3ccc(C)c(C)c3o2)cc1Cl | 13%
COc1ccc(C)cc1NC(=O)CN1C(=O)COc2ccc(S(=O)(=O)NC3CCCC3)cc21 | -3.74%
CCOc1ccc(-c2csc(-c3c(N)c(C(=O)c4ccc5c(c4)OCO5)n4ccccc34)n2)cc1 | 14.1%
O=C(CSc1ccc(Br)cc1)NCC(c1ccco1)N1CCCCC1 (stereo unspecified) | active: 38.9%
CN(C)CCNC(=O)c1ccc(Cn2c(=O)c3cccn3c3cccnc32)cc1 | 2.56%
Cc1ccc(C2C=C(c3ccc(Cl)cc3)Nc3nc(NC(=O)c4ccco4)nn32)cc1 (stereo unspecified) | 5.21%
CNc1snc(C)c1C(=O)OCC(=O)N(C)Cc1ccccc1 | active: 35.1%
CCc1nn(Cc2c(C)cc(C)cc2C)c(=O)c2cc3cc(C)ccc3n12 | 8%

SMILES | inhibition
O=C(Nc1ccc(F)cc1F)N1CCN(c2ccc(Cl)c(Cl)c2)CC1 | 1.83%
CCCC12CN3CC(CCC)(CN(C1)C3c1c(C)[nH]c(=O)[nH]c1=O)C2=O (stereo unspecified) | -1.05%
Cn1nnnc1SCCCNCc1cc(Cl)ccc1OCc1ccccc1F | -20.2%
CCCCCc1nn2cc(-c3ccccc3)nc2s1 | 13.5%
Cc1cccc(N2CCN(S(=O)(=O)c3c(C(=O)N4CCC(C)CC4)c(C)n(C)c3C)CC2)c1C | 8.64%
COC(=O)c1ccc(NC(=O)CC2C(=O)N(c3ccccc3)C(=O)N2Cc2ccco2)cc1 (stereo unspecified) | -19.2%
Cc1ccc(NC(=O)Cn2cnc3sc(C)c(S(=O)(=O)N4CCN(c5ncccn5)CC4)c3c2=O)cc1F | 12.8%
Cn1c(CN2CCCCC2)nc2cc(NC(=O)c3ccccc3)ccc21 | active: 36.1%
CCOc1ccc(C(c2c(O)cc(C)n(Cc3ccco3)c2=O)N2CCN(c3ccccc3)CC2)cc1 (stereo unspecified) | -21.1%
Cc1cccc(CNC(=O)C2CCN(S(=O)(=O)c3ccc4c(c3)CCCN4C(=O)C3CCC3)CC2)c1 | 2.16%
Cc1ccc(C(CC(=O)Nc2ccc(F)c(Cl)c2)N2Cc3ccccc3C2=O)cc1 (stereo unspecified) | 5.32%
COc1cccc(CNCCSc2nnnn2C)c1OCc1ccc(F)cc1 | -0.743%
CC(C)c1ccc(NC(=O)CCn2c(=O)c3cccn3c3ccccc32)cc1 | -8.74%
COc1cc(C(=O)Nc2nonc2-c2ccc(Cl)cc2)cc(OC)c1OC | 17.5%
Cc1nc2sccn2c(=O)c1S(=O)(=O)Nc1ccc(N2CCN(C(=O)C(C)C)CC2)cc1 | 23.4%
CCOC(=O)c1ccn(-c2nc(-c3cccc(OC)c3)cc(C(F)(F)F)n2)n1 | -18.6%
Cc1ccc(N2CC(NC(=O)C3CC3)CC2=O)cc1C (stereo unspecified) | -23.6%
CCOC(=O)c1[nH]c(C)c(CCC(=O)Nc2ccc(Br)c(C)c2)c1C | 7.46%
CC1CN(C(=O)CCC(=O)NCc2ccccc2)c2cc(Cl)ccc2O1 (stereo unspecified) | 13.4%
CC(C)(C)NC(=O)c1ccc2nc(CCc3ccccc3)oc2c1 | 4.51%
Cc1ccc(Cl)cc1NC(=O)Cn1ncc2c(C)n(Cc3ccccc3F)c(C)c2c1=O | -7.33%
COc1ccc(-c2nc(-c3ccccc3)c(-c3ccc(F)cc3)[nH]2)c(OC)c1C | -3.48%
O=S(=O)(NCCc1csc2nc(-c3ccc(F)cc3)nn12)c1ccc(Oc2ccccc2)cc1 | 2.89%
CCOc1ccc(CCNC(=O)c2ccc3c(c2)sc2nc(-c4ccc(F)cc4)cn23)cc1OCC | -8.31%
